Reference: the BET-seq Pho4 binding data (Le et al. 2018)
The list shows a part of the results. The energies were worked out here from pooled read counts, against the library average; single values are noisy.

What follows are sequences tested against T1, Pho4 (S. cerevisiae) (UniProt P07270) (assay: relative binding free energy (BET-seq); higher = weaker binding). Settings: reference: library average.
T1 sequence: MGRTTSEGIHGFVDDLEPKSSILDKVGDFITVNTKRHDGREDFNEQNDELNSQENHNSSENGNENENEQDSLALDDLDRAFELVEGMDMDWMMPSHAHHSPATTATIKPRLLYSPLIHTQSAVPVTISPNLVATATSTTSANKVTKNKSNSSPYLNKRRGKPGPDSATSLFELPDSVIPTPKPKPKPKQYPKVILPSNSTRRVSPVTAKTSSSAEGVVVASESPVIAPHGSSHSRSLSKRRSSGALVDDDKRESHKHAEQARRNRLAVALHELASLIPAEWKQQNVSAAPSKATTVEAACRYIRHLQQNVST

Row | Sequence | relative binding free energy [kcal/mol]
1 | TATGTCACGTGCGGAG | 0.04
2 | AATAACACGTGTTGTT | -0.03
3 | AATTTCACGTGGGTCG | 0.26
4 | TGGAGCACGTGTGAAG | -0.02
5 | AATTACACGTGTTGGC | 0.24
6 | AATATCACGTGGGGGC | 0.1
7 | TGGAGCACGTGTTTTT | 0
8 | CTAGGCACGTGTGGGG | -0.11
9 | AATTTCACGTGTTGTT | 0.31
10 | TTCAGCACGTGTGCGG | -0.12
11 | TATTTCACGTGAAGGG | 0.42
12 | GATTGCACGTGGTAGA | 0.06
13 | GGTTGCACGTGTTGCG | 0.09
14 | GTTTCCACGTGGTGCT | 0.07
15 | CATGGCACGTGGTTAT | -0.09
16 | GGGTTCACGTGGGGGG | 0.24
17 | TGTGCCACGTGCGGGG | -0.14
18 | ACGGTCACGTGTTGGT | 0.04
19 | AAGTACACGTGGGGAA | -0.06
20 | CTGGTCACGTGTTGTA | 0.01
21 | GTGAACACGTGGGCAG | -0.19
22 | GTAACCACGTGTAGGG | -0.07
23 | TGTTGCACGTGGTGTG | 0

Row | Sequence | relative binding free energy [kcal/mol]
24 | TTATTCACGTGGGATT | 0.16
25 | TATCGCACGTGATGGG | 0.06
26 | TGTGCCACGTGCAGTT | 0.06
27 | GTGGGCACGTGCTTAT | -0.1
28 | TTTGGCACGTGATGGG | 0.1
29 | CAATACACGTGTAGGT | 0.04
30 | ATTATCACGTGTGGCT | 0.07
31 | GGTATCACGTGTATAG | 0.2
32 | ATATTCACGTGGTTCA | -0.01
33 | TTGAGCACGTGATTCG | -0.05
34 | ACGGGCACGTGAGTTA | 0.09
35 | AGAGTCACGTGAATAG | 0.27
36 | GATGCCACGTGTGCGG | -0.07
37 | TTGAGCACGTGATCGT | -0.12
38 | GTTCTCACGTGCGGTG | 0.17
39 | AGTGCCACGTGTGAGA | -0.02
40 | CGGAACACGTGGGGTA | -0.15
41 | TTGAGCACGTGATGCT | 0.06
42 | TTGCTCACGTGCTTTT | 0.13
43 | TTGGGCACGTGTAGGA | 0
44 | TTCTCCACGTGGTTTT | 0
45 | GGGGTCACGTGTTGAT | 0.21
46 | ATCTTCACGTGGGCTT | 0.4

Row | Sequence | relative binding free energy [kcal/mol]
47 | TGTTGCACGTGGTAGA | 0.01
48 | TTGAGCACGTGGTGAT | -0.07
49 | TGGTGCACGTGACGCT | 0.02
50 | TATATCACGTGTAAAT | 0.23
51 | GTGTGCACGTGACATT | 0.05
52 | TATATCACGTGTGCGA | 0.18
53 | TATCTCACGTGTGAGG | 0.22
54 | GTGGACACGTGGCATA | 0.01
55 | CATCTCACGTGGTTGG | 0.21
56 | CTTTTCACGTGTTATA | 0.22
57 | CGTGTCACGTGTTGGT | 0.14
58 | TTCCTCACGTGGGGGA | 0.09
59 | AGGTTCACGTGGGTAC | 0.22
60 | GAGGGCACGTGGTGAG | -0.03
61 | TGTTCCACGTGGGTAG | -0.11
62 | TTTAGCACGTGTTGCG | 0.03
63 | GAATTCACGTGAGGTT | 0.38
64 | GAAAACACGTGAGGGG | 0.16
65 | GTGGACACGTGTGTTG | 0.08
66 | GGGAACACGTGTTATA | 0.2
67 | GTTGGCACGTGATAGA | 0.09
68 | GCTGGCACGTGATTGT | 0.08
69 | GGGCACACGTGGTGAT | 0.11

Row | Sequence | relative binding free energy [kcal/mol]
70 | CAATTCACGTGATTGG | 0.51
71 | CTGAGCACGTGAGGGT | 0.11
72 | GTAGGCACGTGGATGC | -0.11
73 | GGATCCACGTGTATGT | 0.08
74 | TTTTGCACGTGTTACG | 0.05
75 | TTCGGCACGTGGTGAT | -0.13
76 | GAGGGCACGTGTAAGT | 0.13
77 | TGAAGCACGTGTGATT | 0.05
78 | TGCTTCACGTGTATAT | 0.29
79 | TTGTACACGTGGAAAG | 0.09
80 | ACGTGCACGTGGTGAT | -0.26
81 | CATGGCACGTGGTTAA | -0.13
82 | GGCTTCACGTGGCTGG | 0.18
83 | AGTGCCACGTGGGTGA | -0.35
84 | GTGTGCACGTGACTGT | 0.11
85 | TTCTACACGTGAAGGG | 0.17
86 | ATCATCACGTGATAGT | 0.23
87 | TAGAGCACGTGGTGGC | -0.16
88 | TGGGGCACGTGTCTAA | -0.06
89 | TTAGGCACGTGCGGTA | -0.07
90 | AGGGTCACGTGGTTGC | 0.19
91 | TATATCACGTGGGGCG | 0.02
92 | TGCGTCACGTGGGAAG | -0.09

Row | Sequence | relative binding free energy [kcal/mol]
93 | TTTTGCACGTGCTTCG | 0
94 | GGTATCACGTGGTCGT | 0.05
95 | GGGAACACGTGTGGCT | 0.11
96 | TGAGACACGTGTTGGG | 0.02
97 | TTTATCACGTGGTATG | 0.07
98 | GGGTTCACGTGCGTGC | 0.17
99 | AAGGACACGTGGTTTT | -0.04
100 | AGGTTCACGTGGAGAT | 0.08
101 | CTTTACACGTGGTGGC | 0.14
102 | AGGTCCACGTGTAATG | 0.07
103 | GGACGCACGTGGCGTG | -0.17
104 | GTTATCACGTGATTCG | 0.33
105 | ATAGGCACGTGTTCGT | -0.27
106 | TGTGCCACGTGAATGG | 0.1
107 | TTGTCCACGTGGACGT | 0.03
108 | AAGGTCACGTGCAGTG | 0.05
109 | AAAATCACGTGAGGAT | 0.39
110 | GTGATCACGTGGTAGG | 0.07
111 | GGGCGCACGTGGAGGA | -0.13
112 | CGTATCACGTGTATGG | 0.08
113 | TCTGTCACGTGTAGCG | 0.19
114 | GGTGTCACGTGTACAA | 0.27
115 | TGAACCACGTGTGTGG | -0.01
